Structures are written as SMILES. Hit rate of the full screen: of about 340,000 compounds, about 6,900 (2%) were called active. Rule as the data show it: active = inhibition above about 30%; inactive = below that, where a call was filed. The entries are a selection whose mix differs from that of the whole data set. The source gives no active or inactive call for entries shown without one.

As usually defined, the inhibition is the relative decrease from the control value, in per cent.

This assay deals with D(2) dopamine receptor (Homo sapiens) (UniProt P14416). The assay can be described thus: HTS Assay for Allosteric Antagonists of the Human D2 Dopamine Receptor: Primary Screen for Antagonists. Also: 0% is about no effect. Conditions: HEK293 TREx D2 cells, calcium flux, dopamine EC80; at 10 µM; stronger effect = higher value. Put shortly: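 Tetracycline-induced HEK293 T-REx cells expressing D2 force-coupled to calcium signalling were dye-loaded, exposed to compound for 180 s, then challenged with an EC80 of dopamine; calcium flux was followed kinetically for a further 180 s.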
Chain of UniProt P14416 (P14416 whole entry, looked up): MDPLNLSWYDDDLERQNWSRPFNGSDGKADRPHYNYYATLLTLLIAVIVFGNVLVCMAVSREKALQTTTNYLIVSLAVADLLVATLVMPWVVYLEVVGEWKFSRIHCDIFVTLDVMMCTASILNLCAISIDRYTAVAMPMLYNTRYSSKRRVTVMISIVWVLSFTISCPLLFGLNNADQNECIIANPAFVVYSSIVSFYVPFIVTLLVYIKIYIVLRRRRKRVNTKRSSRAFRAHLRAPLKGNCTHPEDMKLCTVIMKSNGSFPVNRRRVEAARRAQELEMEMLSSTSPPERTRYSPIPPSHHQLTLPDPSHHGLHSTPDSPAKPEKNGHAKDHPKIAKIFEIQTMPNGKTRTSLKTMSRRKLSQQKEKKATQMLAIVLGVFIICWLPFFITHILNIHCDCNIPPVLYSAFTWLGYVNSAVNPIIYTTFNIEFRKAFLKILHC
(A change in cytosolic calcium serves as a functional read-out for many receptors and channels.)
As to `CCOc1ccc(CCNC(=O)c2nnc(Cc3cc(OC)c(OC)c(OC)c3)o2)cc1OCC`, the inhibition was -27.1%.
As to `CCOC(=O)C1CCN(C(=O)Cn2nc(C)n3c(cc4cc(F)ccc43)c2=O)CC1`, the inhibition worked out at 0.161%.
On to `COc1ccc(N2CCN(S(=O)(=O)CCNC(=O)Cc3ccc(Cl)cc3)CC2)cc1`, for which the inhibition amounted to 27.1%.
Then `O=C(NCCN1CCOCC1)C12CC3CC(C1)CC(c1ccccc1)(C3)C2`, with active: 38.4%; and `CCn1cc(S(=O)(=O)c2cc(C)cc(C)c2)c(=O)c2cc(F)c(N3CCCC3)cc21`, with 11.6%.
Then `COc1ccc(-c2nc3c4ccccc4n(CC(=O)Nc4cc(F)ccc4F)c(=O)n3n2)cc1`, with 1.03%; and `CCOc1ccc(OC(=O)c2cn(-c3ccc(C)cc3)c(=O)c3ccccc23)cc1`, with -0.413%.
Then `COc1cc(-c2ccno2)ccc1S(=O)(=O)N1CCN(c2ccc(C(C)=O)cc2)CC1`, with 4.5%.
`COc1ccc(-c2cc(C(F)(F)F)n3nc(C(=O)Nc4cc(Cl)cc(Cl)c4)cc3n2)cc1`: the inhibition worked out at 0.556%.
Then `CCCCC(=O)Nc1ccccc1C(=O)OCc1cc(=O)n2nc(C3CCCCC3)sc2n1`, with 1.95%.
In the case of `Cc1c(Cl)ccc2c(C(=O)O)cc(-c3ccccc3)nc12` it was active: 52%.
In the case of `CCCOc1cccc(C(=O)Nc2cccc(NC(=O)c3ccc(C(C)(C)C)cc3)c2)c1` it was 6.04%; in that of `COc1ccc2[nH]c(C)c(CCNS(=O)(=O)c3cc(F)ccc3OC)c2c1`, 10.4%; in that of `CN(C)c1ccc(C(CNC(=O)c2ccc(C(C)(C)C)cc2)N2CCOCC2)cc1` (stereo unspecified), -14.9%.
With `COc1ccc(NC(=O)CSc2[nH]c(=O)cc(C)c2C#N)cc1OC`, the inhibition was active: 34.3%.
For the compound `COc1ccc(CCNC(=O)C2(c3cccs3)CCOCC2)cc1OC`, the inhibition is -24.3%.
Then `COC(=O)c1cccc(-n2c(CCC(=O)O)ccc2-c2ccc(OC)cc2)c1`, with 8.6%; and `CCOC(=O)c1cc(-c2ccccc2)n(CCCC(=O)Nc2ccc(C(C)C)cc2)c1C`, with 14.9%; and `Cc1ccc(Cl)cc1NC(=O)C(C)n1nnc2sc(-c3ccccc3)cc2c1=O` (stereo unspecified), with 15.2%.
In the case of `CCOc1ccc(/C=N/NC(=O)c2cc3c(OC)cc(OC)c(OC)c3[nH]2)cc1` it was active: 55.7%; in that of `CCCCOc1ccc(S(=O)(=O)Nc2ccc(-c3ccc(N4CCCCCC4)nn3)cc2)cc1`, 26.6%; in that of `COc1ccc(Cn2c(SCc3ccc(C(=O)NC4CCCC4)cc3)nc3ccncc32)cc1`, 11.2%.
Then `CCOC(=O)c1c(C)oc2ncnc(N3CCN(c4ccccc4OC)CC3)c12`, with 1.9%.
Take `O=C(COc1ccc2oc3c(c2c1)CCCC3)Nc1ccc(Br)cc1`: the inhibition is -10.8%.
Then `COc1ccc(-c2cc(C(C)=O)c(C)n2CCC(=O)NCc2ccccc2OC)cc1`, with 14%.
In the case of `CCc1ccccc1N(C)C(=O)Cc1c(C(=O)O)c(C)cn1C` it was -11.2%; in that of `Brc1cccc(CNCCSc2nnnn2-c2ccccc2)c1`, -13.3%; in that of `Cc1cc(C)c(NC(=O)C(C)n2nc(-c3ccc(C)c(C)c3)ccc2=O)c(C)c1` (stereo unspecified), 7.59%.
For the compound `CCCCNC(=O)N1CCOCCOCCN(C(=O)NCCCC)CCOCCOCC1`, the inhibition is active: 32.3%.
Then `Cc1cc(C)cc(OCC(=O)NCCc2nc3ccccc3[nH]2)c1`, with 7.36%; and `COc1cccc(CC2(CO)CCN(Cc3ccc4cccc(F)c4n3)CC2)c1`, with active: 61.6%; and `Cc1ccc(NC(=O)Cc2ccc(-n3c(C)nc4cccnc43)cc2)cc1C`, with -17.1%.
Then `Cc1ccccc1NC(=O)CSc1nc(-c2ccccc2C)nc2cc(=O)[nH]n12`, with 8.18%; and `COc1ccccc1N(CC(=O)NCCSCc1ccccc1)S(=O)(=O)c1ccc(C)cc1`, with -3.1%; and `CCOc1ccc(NC(=O)N2CCN(S(=O)(=O)c3ccc4c(ccn4C)c3)CC2)cc1`, with 22.5%.
Then `COCCNC(=O)Cn1nc(N2CCN(c3ccccc3OC)CC2)ccc1=O`, with 20%; and `CCc1ccc(C(=O)c2cn(CC(=O)Nc3ccc(F)cc3)c3ccc(OC)cc3c2=O)cc1`, with 17.1%; and `CC(=O)N1CCN(c2csc3ccc(F)cc3c2=O)CC1`, with -5.9%.
In the case of `O=C1CN(C(=O)Cc2ccc(F)cc2)C(c2ccccc2)c2cc(Cl)ccc2N1` (stereo unspecified), the inhibition is -14.8%.
Then `COc1ccc(NC(=O)Cn2c(=O)n(C(C)C)c(=O)c3oc4ccccc4c32)cc1Cl`, with -2.49%.
With `CCCN1CCN(CCNC(=O)Nc2ccc(OC)cc2OC)CC1`, the inhibition turned out to be 12.2%.
In the case of `O=C(CC1C(=O)N(c2ccccc2)C(=O)N1CCC1=CCCCC1)Nc1ccc(F)cc1` (stereo unspecified) it was -21.1%; in that of `Nc1ccc(-c2nc3ncccc3o2)cc1`, active: 32.8%; in that of `COc1ccc(-c2cc(OC(=O)c3ccc(Cl)cc3)c3c(C)oc(C)c3c(=O)c2)cc1`, -8.07%.
In the case of `Cc1ccc(C(=O)Nc2cccc(-c3nc4cccnc4s3)c2C)cc1` it was 8.62%; in that of `Cc1cccc(CN2C(=O)c3ccccc3S(=O)(=O)c3ccc(C(=O)NCCC4=CCCCC4)cc32)c1`, -4.05%; in that of `COc1cc(NC(=O)c2ccc3c(SCC(=O)O)c4c(nc3c2)CCC4)cc(OC)c1OC`, active: 35.7%.
In the case of `CCOC(=O)C1CCN(C(=O)CCS(=O)(=O)c2cc3c(cc2Cl)NC(=O)CO3)CC1` it was 3.84%; in that of `Cc1ccc(CSc2ncc(Cl)c(C(=O)NCCc3ccc(S(N)(=O)=O)cc3)n2)cc1`, -9.13%.
For `Cc1ccc(N(CC(=O)NCc2ccc(Cl)cc2)S(=O)(=O)N(C)C)cc1`, the inhibition turned out to be 13.1%.
In the case of `COc1ccc(NC(=O)CSc2nc(-c3ccc(OC)cc3)[nH]c2-c2ccc(OC)cc2)cc1` it was 16.1%.
In the case of `COc1ccc(OCC(=O)OCc2cc(=O)n3cc(C)sc3n2)cc1`, the inhibition is -1.57%.
In the case of `COc1cc(/C=N\NC(=O)c2ccc(C)nc2)ccc1OC(=O)c1ccco1` it was active: 34.4%; in that of `COc1ccc(NC(=O)c2cc3nc(-c4ccc(C)c(C)c4)cc(C(F)(F)F)n3n2)cc1`, -2.32%.
As for `COc1ccccc1CNC(=O)c1oc2ccc(S(=O)(=O)N3CCCCC3)cc2c1C`, the inhibition is 5.33%.
In the case of `CCc1ccccc1NC(=O)c1ccc2c(O)c(S(=O)(=O)c3ccccc3)c(=O)[nH]c2c1` it was -2.03%; in that of `CCOc1ccc(NC(=O)CSc2nccn2Cc2ccco2)cc1`, -8.63%.
In the case of `CCOc1ccc2[nH]c(=O)c(CN(CCO)Cc3nnnn3CCc3ccccc3)cc2c1` it was active: 38.9%; in that of `CCOc1ccccc1NC(=O)C(=O)NCCc1sc(-c2cccc(F)c2)nc1C`, -1.11%.
Take `CCC(=O)Oc1ccc(/C=C(\C#N)c2nc3ccccc3[nH]2)cc1OC`: the inhibition is 11.9%.
Then `COc1ccc(-c2cc(C(F)(F)F)nc(S(=O)(=O)CCCC(=O)Nc3cccc(O)c3)n2)cc1OC`, with -6.9%.

For the origin of these results see PubChem BioAssay AID485344 (National Center for Advancing Translational Sciences (NCATS), 2010).
